Here are results for 82 molecules from PMC4336329 (PLoS ONE, 2015).

The whole screen tested about 310,000 compounds, of which about 14,000 (4.5%) showed an effect of 50% or more. The effect is printed as a negative number. The list shows a part of the results.
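Note: peak tail current of the secondary pulse compared with the same well before compound.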

The target in the experiment is human ether-à-go-go-related gene (hERG) potassium channel (human, UniProt Q12809). Briefly: primary screen, population patch clamp on CHO cells stably expressing hERG.
Chain of human ether-à-go-go-related gene (hERG) potassium channel (Q12809 whole entry, looked up): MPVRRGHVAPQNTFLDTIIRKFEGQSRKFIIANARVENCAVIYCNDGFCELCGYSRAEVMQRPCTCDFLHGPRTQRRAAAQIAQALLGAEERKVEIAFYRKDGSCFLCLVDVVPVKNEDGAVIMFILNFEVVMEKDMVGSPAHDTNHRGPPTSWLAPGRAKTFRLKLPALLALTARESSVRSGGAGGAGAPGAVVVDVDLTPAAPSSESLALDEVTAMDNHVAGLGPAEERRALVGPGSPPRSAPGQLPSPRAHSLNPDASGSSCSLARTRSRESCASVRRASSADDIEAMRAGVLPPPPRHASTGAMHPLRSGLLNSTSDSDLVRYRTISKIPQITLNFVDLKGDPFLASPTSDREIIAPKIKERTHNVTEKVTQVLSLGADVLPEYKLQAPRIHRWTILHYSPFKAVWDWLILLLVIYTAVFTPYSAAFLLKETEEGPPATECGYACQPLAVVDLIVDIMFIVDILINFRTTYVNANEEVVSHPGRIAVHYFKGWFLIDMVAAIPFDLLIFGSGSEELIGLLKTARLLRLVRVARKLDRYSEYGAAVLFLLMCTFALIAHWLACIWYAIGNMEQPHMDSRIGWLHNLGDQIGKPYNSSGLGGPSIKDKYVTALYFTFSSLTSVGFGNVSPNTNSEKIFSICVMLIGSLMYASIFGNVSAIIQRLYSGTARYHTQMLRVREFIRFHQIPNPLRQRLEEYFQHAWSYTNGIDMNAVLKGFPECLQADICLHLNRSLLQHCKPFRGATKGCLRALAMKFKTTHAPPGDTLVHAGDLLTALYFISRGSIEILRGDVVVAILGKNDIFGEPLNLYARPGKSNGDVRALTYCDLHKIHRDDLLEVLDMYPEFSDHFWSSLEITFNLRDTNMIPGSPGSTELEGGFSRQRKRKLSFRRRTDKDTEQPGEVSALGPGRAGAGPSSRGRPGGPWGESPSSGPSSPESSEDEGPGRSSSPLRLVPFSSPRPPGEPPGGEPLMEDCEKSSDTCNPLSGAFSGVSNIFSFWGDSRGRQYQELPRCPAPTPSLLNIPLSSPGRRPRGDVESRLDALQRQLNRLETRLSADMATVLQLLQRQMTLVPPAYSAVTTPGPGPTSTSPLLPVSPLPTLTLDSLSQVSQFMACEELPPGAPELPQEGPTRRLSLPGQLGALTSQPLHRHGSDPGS
`Cc1cccc(N2CCN(C(=O)c3cccs3)CC2)c1C`: the “hERG current change (%, negative = inhibition) at 10uM” value is reported as -10.6%. Consider `Cc1cc(SCC(=O)OCC(=O)N(C)c2ccccc2)nc2ccccc12`, for which the “hERG current change (%, negative = inhibition) at 10uM” value is recorded as -22.8%.

Regarding `CCOC(=O)C(=NCCCN(C)C)NNc1ccc(Br)cc1`, the “hERG current change (%, negative = inhibition) at 10uM” value was -35.3%. To `Cl.O=C1c2cccc3cccc(c23)C(=O)N1CC1CCN(CC(O)COc2ccc3ccccc3c2)CC1` (stereo not shown) belongs -46.1%; to `COc1ccc(C(C(=O)NC2CCCC2)N(C(=O)c2ccco2)c2cc3c(cc2C(C)=O)OCO3)cc1OC` (stereo not shown), 8.95%. Regarding `CC(C)=CCc1c(O)cc(O)c2c(=O)c3c(CC=C(C)C)c(O)ccc3oc12`, the “hERG current change (%, negative = inhibition) at 10uM” value worked out at 11.7%.

Turning to `COc1ccc2nc(NC(=O)c3ccccc3F)sc2c1`, the “hERG current change (%, negative = inhibition) at 10uM” value was -0.416%. In the case of `CCCn1c(SCC(=O)c2c[nH]c3ccccc23)nnc1-c1ccncc1` it was 4.4%; in that of `Cc1ccc(NC(=O)Cn2cnc3ccccc32)cc1C`, -3.44%.

As to `C#CCOC(=O)C(NC(=O)c1ccccc1)=C(C)C`, the “hERG current change (%, negative = inhibition) at 10uM” value is given as 5.56%. For `O=C(/C=C/c1ccc2c(c1)OCO2)Nc1nc2ccc(F)cc2s1`, the “hERG current change (%, negative = inhibition) at 10uM” value is 32.5%. To `CC(C)c1ccc(N(CC(=O)NCc2ccc(F)cc2)C(=O)c2snc(C(N)=O)c2N)cc1` belongs 6.89%; to `COc1ccc(CNC(=O)COc2ccc(S(=O)(=O)NC(C)C)cc2)cc1`, -0.279%; to `COc1cc(OC)cc(-c2c(C#Cc3ccsc3)c3cc(-c4cnc(OC)nc4)ccc3n2C)c1`, 2.52%. In the case of `O=C(CSc1nnc(Cc2cccs2)n1C1CCCCC1)N1CCCc2ccccc21` it was -24.4%; in that of `CSc1ccccc1NC(=O)COC(=O)c1ccccc1O`, 4.27%; in that of `COC(=O)c1ccc(Cl)c(NC(=O)CSc2nnc(-c3ccncc3)o2)c1`, 18.9%. In the case of `O=C1c2ccccc2NC(c2ccc(Br)o2)N1O` (stereo not shown) it was -3.37%; in that of `Cc1cc(C)cc(C(=O)N2CC(C)SC2=Nc2cccc(S(=O)(=O)N(C)C)c2)c1` (stereo not shown), -25.3%. Take `COc1ccc(/C(N)=N/OC(=O)CC2CCCCC2)cc1OC`: the “hERG current change (%, negative = inhibition) at 10uM” value is -5.6%. In the case of `CCC(C(=O)NC1CCCC1)N(C(=O)Cn1nnc(-c2ccc(C)o2)n1)c1cccc(O)c1` (stereo not shown) it was 15%; in that of `CCC(=O)Nc1ccc(C(=O)NNC(=O)C(c2ccccc2)c2ccccc2)cc1`, 12.8%; in that of `O=S(=O)(NCC(c1ccc2c(c1)OCO2)N1CCOCC1)c1ccc(F)cc1` (stereo not shown), -6.81%. To `O=C(CN1C(=O)C2CC=CCC2C1=O)Nc1ccc(S(=O)(=O)NC2=NCCCCC2)cc1` (stereo not shown) belongs 1.02%; to `O=C(Nc1ccccc1F)Nc1ccc([N+](=O)[O-])cc1Cl`, 18.4%.

`COc1ccc(NC(=O)CSCC(=O)N(C)Cc2c(F)cccc2Cl)cc1`: the “hERG current change (%, negative = inhibition) at 10uM” value is -22.1%. In the case of `COc1ccc2[nH]c(C(=O)Nc3ccccc3Cl)cc2c1` it was 6.19%; in that of `C=CCn1c(SCC(=O)Nc2ccc(-c3nc4ccc(C)cc4s3)cc2)nnc1-c1ccncc1`, -2.88%. To `CCn1nnc(NC(=S)NC(=O)c2ccc(-c3cccc(Cl)c3)o2)n1` belongs -9.45%; to `CCOC(=O)C1CCN(C(=O)c2cc(S(=O)(=O)N3CCCCCC3)ccc2OC)CC1`, -50.8%; to `CCCN(C(=O)Cc1coc2cc(C)c(C)cc12)c1c(N)n(Cc2ccccc2)c(=O)[nH]c1=O`, -20.2%. In the case of `O=C(c1ccc2ncsc2c1)N1CCCC(C(F)(F)F)C1` (stereo not shown) it was 4.69%; in that of `COc1ccc(C2CC3(CC(C)(C)NC(SC)=N3)Oc3cc(O)cc(C)c32)cc1.I` (stereo not shown), -74.3%. As for `CCCOc1ccc(/C=C/C(=O)OCC(=O)N(C)c2c(N)n(Cc3ccccc3)c(=O)[nH]c2=O)cc1OCC`, the “hERG current change (%, negative = inhibition) at 10uM” value was found to be 34.2%. In the case of `CN[C@H](C)[C@H](O)c1ccccc1`, the “hERG current change (%, negative = inhibition) at 10uM” value amounted to 14.9%.

Regarding `COc1ccccc1OCC(=O)Nc1ccc(S(=O)(=O)Nc2nc(C)cc(C)n2)cc1`, the “hERG current change (%, negative = inhibition) at 10uM” value stood at 6.71%. In the case of `N#C/C(=C\c1ccccn1)c1nc2ccccc2s1` it was 15.5%. As to `Cc1c(C(=O)NCCSCc2c(F)cccc2Cl)cnn1-c1ccc(Cl)cc1`, the “hERG current change (%, negative = inhibition) at 10uM” value is recorded as -22%. For `Cc1cccc(NC(=O)c2cc([N+](=O)[O-])ccc2N2CCN(C)CC2)c1`, the “hERG current change (%, negative = inhibition) at 10uM” value is listed as -61.9%. In the case of `O=C1N/C(=C/c2cccn2-c2ccc(F)cc2)C(=O)N1Cc1ccccc1F` it was 13.8%. Regarding `Cc1ccc(-n2nc3c(=O)n(CC(=O)NC(C)CCc4ccccc4)nc(C)c3c2C)cc1` (stereo not shown), the “hERG current change (%, negative = inhibition) at 10uM” value turned out to be 6.77%. In the case of `COc1ccc(CN2CCNC(=O)C2CC(=O)NCC2CCOCC2)c(F)c1` (stereo not shown), the “hERG current change (%, negative = inhibition) at 10uM” value worked out at 17.3%. To `Cc1ccc(NC2=C([N+](=O)[O-])CS(=O)(=O)C2)cc1` belongs 2.58%. To `COc1ccc(-n2nnc3c(=O)n(CC(=O)Nc4ccc5c(c4)OCCO5)cnc32)cc1OC` belongs 0.0199%; to `O=C1OC(CCl)CN1Cc1ccc([N+](=O)[O-])cc1` (stereo not shown), -27.9%.

For the molecule `COc1ccc(S(=O)(=O)N2CCC(C(=O)OCC(=O)c3ccccc3)CC2)cc1[N+](=O)[O-]`, the “hERG current change (%, negative = inhibition) at 10uM” value is given as -2.2%. In the case of `COc1cccc(-c2nc(CS(=O)CC(=O)NCc3ccccc3Cl)c(C)o2)c1` (stereo not shown) it was -22.6%. In the case of `CC(NC(=O)CNC(=O)C1O[C@@H]2OC(C)(C)O[C@@H]2[C@H]2OC(C)(C)O[C@@H]12)C(=O)O` (stereo partly shown) it was 23%; in that of `O=C(NC(=S)Nc1ccc(S(=O)(=O)Nc2nccs2)cc1)c1ccc(F)cc1`, 23%; in that of `CCOC(=O)N1CCN(c2nc3ccc(C(=O)c4ccccc4)cc3n3cnnc23)CC1`, -43.9%. To `CCn1c(SCC(=O)NNC(=O)c2ccc(OC)cc2)nnc1C(C)C` belongs 11%. In the case of `CCOC(=O)c1ccc(NC(=S)N(CCCN2CCN(CC)CC2)Cc2ccco2)cc1`, the “hERG current change (%, negative = inhibition) at 10uM” value is -76.5%. On to `Cc1cccc(C(=O)NC(Oc2ccccc2)C(Cl)(Cl)Cl)c1` (stereo not shown), for which the “hERG current change (%, negative = inhibition) at 10uM” value was 17.7%. In the case of `Cc1sc2ncnc(SCC(=O)Nc3nc(-c4ccc(F)c(F)c4)cs3)c2c1C` it was 22.9%; in that of `O=C(Nc1ccnc(-c2ccncc2)n1)c1ccc(Cl)cc1`, 19.7%.

As for `CCCC(=O)C1CCN(Cc2ccccc2)CC1`, the “hERG current change (%, negative = inhibition) at 10uM” value was determined as 5.21%. To `O=C(O)C12CC3CC(C1)CC(n1ncc(NCc4ccco4)c(Cl)c1=O)(C3)C2` belongs 4.41%. On to `CC(C)=NNc1nc2c(c(=O)[nH]c(=O)n2C)n1CCCc1ccccc1`, for which the “hERG current change (%, negative = inhibition) at 10uM” value amounted to 13.6%. To `Cc1ccc(CNC(=O)c2ccc(N3CCC4(CC3)CC(c3ccccc3)=NO4)c(NC(=O)c3ccccc3)c2)cc1` belongs 7.61%; to `CCC1(CC)C(=O)N(C)C(=O)NC1=Nc1ccc(OC)cc1`, 8.99%; to `COC(=O)CNC(=O)C1CCC(CNS(=O)(=O)c2cccc3nsnc23)CC1` (stereo not shown), 8.55%. In the case of `N#Cc1c(N)nc2c(c1-c1ccco1)CCCCC2` it was 10.4%; in that of `O=C(Nc1ccc(S(=O)(=O)Nc2nccs2)cc1)c1nn(-c2ccccc2)ccc1=O`, 11%.

For `CCN1C[C@@]2(COC)C3[C@@H](OC)[C@H]4[C@@H]1[C@@]3(C1C[C@H]3[C@H](OC(C)=O)C1[C@]4(OC(C)=O)C[C@H]3OC)[C@@H](OC)C[C@H]2OC(C)=O` (stereo partly shown), the “hERG current change (%, negative = inhibition) at 10uM” value was -1.43%. On to `CN(c1ccc(C(=O)N/N=C/c2cccc([N+](=O)[O-])c2)cc1)S(=O)(=O)c1ccccc1`, for which the “hERG current change (%, negative = inhibition) at 10uM” value was 1.88%.

Regarding `C=CCN1C=C2C(=O)C(C)(OC(=O)c3ccc(OC)cc3)C(=O)C(c3ccco3)=C2C=C1CCCC` (stereo not shown), the “hERG current change (%, negative = inhibition) at 10uM” value worked out at 11.9%.

With `COS(=O)(=O)[O-].Cn1nnc(CC[N+](C)(C)C)n1`, the “hERG current change (%, negative = inhibition) at 10uM” value was 14.7%. As to `Cc1cc2nc(-c3cccnc3SCC(=O)NC(C)C)[nH]c2cc1C`, the “hERG current change (%, negative = inhibition) at 10uM” value came to 25.4%. To `COc1cccc(C(=O)O/N=C/c2ccc(Sc3ccc(C)cc3)nc2)c1` belongs 24.9%. As for `Cc1ccc(C23CC4CC(CC(C(=O)NC(C)C(=O)O)(C4)C2)C3)cc1` (stereo not shown), the “hERG current change (%, negative = inhibition) at 10uM” value was found to be 26.7%. Regarding `N#Cc1cc(-c2ccccc2)nnc1Sc1ccccc1`, the “hERG current change (%, negative = inhibition) at 10uM” value was 26.3%. In the case of `OC12CCCCC1C(c1ccc3c(c1)OCO3)N(Cc1ccccc1F)CC2` (stereo not shown) it was -10.9%; in that of `COC(=O)C1C(=O)c2c([nH]c(C(=O)OC3CCCCCC3)c2C)CC1C` (stereo not shown), 8.03%.

For the molecule `O=C1c2ccccc2NC(c2cn[nH]c2-c2ccccc2)N1O` (stereo not shown), the “hERG current change (%, negative = inhibition) at 10uM” value is listed as -6.97%. To `Nc1ccccc1/C=N\N=C/c1ccccc1N` belongs -0.527%; to `CCNc1ccc(C(=O)Nc2ccc3nc(C)sc3c2)cc1[N+](=O)[O-]`, 2.48%. To `Cc1ccc(-n2c(SCC(=O)N3CCC(C(=O)O)CC3)nc3ccccc3c2=O)cc1C` belongs 25.1%; to `c1coc(CSc2ncnc3c2oc2ccccc23)c1`, 13.9%. To `Clc1ccc(-c2cc(CSc3ccccc3)on2)cc1` belongs 6.26%; to `O=C(O)c1cc([N+](=O)[O-])cc2c1C=Cc1ccccc1O2`, 15.4%. Regarding `COc1ccc(CCNC(=O)c2cc3c(=O)n4ccccc4nc3n(Cc3ccco3)c2=N)cc1OC`, the “hERG current change (%, negative = inhibition) at 10uM” value is given as -76.6%. To `CCOc1ccccc1CN1CCNC(=O)C1CC(=O)NC1CCCCC1` (stereo not shown) belongs 8.06%.
